# Test results from the supplement of paper PMC8728848.
# The other results are listed elsewhere or left out.
# B1: RegIIIbeta (Mus musculus), P35230 (protein)
# chain: MLPPTACSVMSWMLLSCLMLLSQVQGEDSLKNIPSARISCPKGSQAYGSYCYALFQIPQTWFDAELACQKRPGGHLVSVLNSAEASFLSSMVKRTGNSYQYTWIGLHDPTLGAEPNGGGWEWSNNDVMNYFNWERNPSTALDRAFCGSLSRASGFLKWRDMTCEVKLPYVCKFTG
# Tests used:
# Assay in all cases: glycan array binding signal (z-score within array); higher = stronger binding
# Details in all cases: glycan notation: IUPAC condensed, linker removed
# [1] = target: Gal(b1-3)[GlcNAc(b1-6)]GalNAc
# Procedure, shortened: (§1)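 Columns mapping to the same glycan were averaged after glycan names were converted to IUPAC-condensed notation. The data come from 3228 arrays in the Consortium for Functional Glycomics database, limited to those with an available protein sequence. Binding is reported as a within-array Z-score averaged across arrays of one protein sequence and across linkers.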
# [2] = target: Gal(b1-3)[Neu5Ac(a2-6)]GalNAc
# Procedure, shortened: as §1
# [3] = target: Gal(b1-3)[Neu5Ac(a2-6)]GlcNAc(b1-4)Gal(b1-4)Glc
# Procedure, shortened: as §1
# [4] = target: Gal(b1-3)[Neu5Ac(b2-6)]GalNAc
# Procedure, shortened: as §1
# [5] = target: Gal(b1-4)GalNAc(a1-3)[Fuc(a1-2)]Gal(b1-4)GlcNAc
# Procedure, shortened: as §1
# Gal(b1-4)Glc = target: Gal(b1-4)Glc
# Procedure, shortened: as §1
# Gal(b1-4)Glc6S = target: Gal(b1-4)Glc6S
# Procedure, shortened: as §1
# Gal(b1-4)GlcNAc = target: Gal(b1-4)GlcNAc
# Procedure, shortened: as §1
# [6] = target: Gal(b1-4)GlcNAc(b1-3)Gal(b1-4)Glc
# Procedure, shortened: as §1
# [7] = target: Gal(b1-4)GlcNAc(b1-3)Gal(b1-4)GlcNAc
# Procedure, shortened: as §1
# [8] = target: Gal(b1-4)GlcNAc(b1-3)Gal(b1-4)GlcNAc(b1-3)Gal(b1-4)GlcNAc
# Procedure, shortened: as §1
# [9] = target: Gal(b1-4)GlcNAc(b1-3)Gal(b1-4)[Fuc(a1-3)]GlcNAc(b1-3)Gal(b1-4)[Fuc(a1-3)]GlcNAc
# Procedure, shortened: as §1
# [10] = target: Gal(b1-4)GlcNAc(b1-3)GalNAc
# Procedure, shortened: as §1
# [11] = target: Gal(b1-4)GlcNAc(b1-3)[Gal(b1-4)GlcNAc(b1-6)]GalNAc
# Procedure, shortened: as §1
# [12] = target: Gal(b1-4)GlcNAc(b1-6)GalNAc
# Procedure, shortened: as §1
# [13] = target: Gal(b1-4)GlcNAc(b1-6)[Gal(b1-3)]GalNAc
# Procedure, shortened: as §1
# Gal3S(b1-3)GalNAc = target: Gal3S(b1-3)GalNAc
# Procedure, shortened: as §1
# Gal3S(b1-3)GlcNAc = target: Gal3S(b1-3)GlcNAc
# Procedure, shortened: as §1
# [14] = target: Gal3S(b1-3)[Fuc(a1-4)]GlcNAc
# Procedure, shortened: as §1
# Gal3S(b1-4)Glc = target: Gal3S(b1-4)Glc
# Procedure, shortened: as §1
# Gal3S(b1-4)Glc6S = target: Gal3S(b1-4)Glc6S
# Procedure, shortened: as §1
# Gal3S(b1-4)GlcNAc = target: Gal3S(b1-4)GlcNAc
# Procedure, shortened: as §1
# Gal4S(b1-4)GlcNAc = target: Gal4S(b1-4)GlcNAc
# Procedure, shortened: as §1
# Gal6S(b1-4)Glc = target: Gal6S(b1-4)Glc
# Procedure, shortened: as §1
# Gal6S(b1-4)Glc6S = target: Gal6S(b1-4)Glc6S
# Procedure, shortened: as §1
# GalNAc(a1-3)Gal = target: GalNAc(a1-3)Gal
# Procedure, shortened: as §1
# GalNAc(a1-3)GalNAc = target: GalNAc(a1-3)GalNAc
# Procedure, shortened: as §1
# GalNAc(b1-3)GalNAc = target: GalNAc(b1-3)GalNAc
# Procedure, shortened: as §1
# GalNAc(b1-4)GlcNAc = target: GalNAc(b1-4)GlcNAc
# Procedure, shortened: as §1
# Glc(a1-4)Glc = target: Glc(a1-4)Glc
# Procedure, shortened: as §1
# Glc(b1-4)Glc = target: Glc(b1-4)Glc
# Procedure, shortened: as §1
# Glc(b1-6)Glc = target: Glc(b1-6)Glc
# Procedure, shortened: as §1
# [15] = target: GlcNAc(b1-2)Gal(b1-3)GalNAc
# Procedure, shortened: as §1
# GlcNAc(b1-3)Gal = target: GlcNAc(b1-3)Gal
# Procedure, shortened: as §1
# [16] = target: GlcNAc(b1-3)Gal(b1-3)GalNAc
# Procedure, shortened: as §1
# GlcNAc(b1-3)Gal(b1-4)Glc = target: GlcNAc(b1-3)Gal(b1-4)Glc
# Procedure, shortened: as §1
# [17] = target: GlcNAc(b1-3)Gal(b1-4)GlcNAc
# Procedure, shortened: as §1
# [18] = target: GlcNAc(b1-3)[GlcNAc(b1-6)]GalNAc
# Procedure, shortened: as §1
# [19] = target: GlcNAc(b1-3)[GlcNAc(b1-6)]GlcNAc(b1-4)GlcNAc
# Procedure, shortened: as §1
# [20] = target: GlcNAc(b1-4)GlcNAc(b1-4)GlcNAc
# Procedure, shortened: as §1
# [21] = target: GlcNAc(b1-4)[GlcNAc(b1-6)]GalNAc
# Procedure, shortened: as §1
# GlcNAc(b1-6)GalNAc = target: GlcNAc(b1-6)GalNAc
# Procedure, shortened: as §1
# Kdn(a2-3)Gal(b1-3)GlcNAc = target: Kdn(a2-3)Gal(b1-3)GlcNAc
# Procedure, shortened: as §1
# Kdn(a2-3)Gal(b1-4)GlcNAc = target: Kdn(a2-3)Gal(b1-4)GlcNAc
# Procedure, shortened: as §1
# [22] = target: Man(a1-2)Man(a1-2)Man(a1-3)Man
# Procedure, shortened: as §1
binder,measurement,setting,value
B1,glycan array binding signal (z-score),[1],-0.122
same,glycan array binding signal (z-score),[2],-0.11
same,glycan array binding signal (z-score),[3],-0.105
same,glycan array binding signal (z-score),[4],0.019
same,glycan array binding signal (z-score),[5],0.028
same,glycan array binding signal (z-score),Gal(b1-4)Glc,-0.098
same,glycan array binding signal (z-score),Gal(b1-4)Glc6S,-0.119
same,glycan array binding signal (z-score),Gal(b1-4)GlcNAc,-0.085
same,glycan array binding signal (z-score),[6],-0.103
same,glycan array binding signal (z-score),[7],-0.12
same,glycan array binding signal (z-score),[8],-0.121
same,glycan array binding signal (z-score),[9],0.026
same,glycan array binding signal (z-score),[10],-0.119
same,glycan array binding signal (z-score),[11],-0.091
same,glycan array binding signal (z-score),[12],-0.121
same,glycan array binding signal (z-score),[13],-0.101
same,glycan array binding signal (z-score),Gal3S(b1-3)GalNAc,-0.124
same,glycan array binding signal (z-score),Gal3S(b1-3)GlcNAc,-0.117
same,glycan array binding signal (z-score),[14],-0.098
same,glycan array binding signal (z-score),Gal3S(b1-4)Glc,-0.115
same,glycan array binding signal (z-score),Gal3S(b1-4)Glc6S,-0.105
same,glycan array binding signal (z-score),Gal3S(b1-4)GlcNAc,-0.11
same,glycan array binding signal (z-score),Gal4S(b1-4)GlcNAc,0.188
same,glycan array binding signal (z-score),Gal6S(b1-4)Glc,-0.116
same,glycan array binding signal (z-score),Gal6S(b1-4)Glc6S,-0.093
same,glycan array binding signal (z-score),GalNAc(a1-3)Gal,-0.109
same,glycan array binding signal (z-score),GalNAc(a1-3)GalNAc,-0.121
same,glycan array binding signal (z-score),GalNAc(b1-3)GalNAc,-0.103
same,glycan array binding signal (z-score),GalNAc(b1-4)GlcNAc,-0.106
same,glycan array binding signal (z-score),Glc(a1-4)Glc,-0.107
same,glycan array binding signal (z-score),Glc(b1-4)Glc,-0.117
same,glycan array binding signal (z-score),Glc(b1-6)Glc,0.031
same,glycan array binding signal (z-score),[15],-0.117
same,glycan array binding signal (z-score),GlcNAc(b1-3)Gal,-0.075
same,glycan array binding signal (z-score),[16],-0.096
same,glycan array binding signal (z-score),GlcNAc(b1-3)Gal(b1-4)Glc,-0.094
same,glycan array binding signal (z-score),[17],-0.09
same,glycan array binding signal (z-score),[18],-0.071
same,glycan array binding signal (z-score),[19],-0.018
same,glycan array binding signal (z-score),[20],-0.118
same,glycan array binding signal (z-score),[21],-0.093
same,glycan array binding signal (z-score),GlcNAc(b1-6)GalNAc,-0.125
same,glycan array binding signal (z-score),Kdn(a2-3)Gal(b1-3)GlcNAc,-0.012
same,glycan array binding signal (z-score),Kdn(a2-3)Gal(b1-4)GlcNAc,-0.018
same,glycan array binding signal (z-score),[22],-0.023
